T1: EIF_DEAD__P60842_29_237
T1 chain: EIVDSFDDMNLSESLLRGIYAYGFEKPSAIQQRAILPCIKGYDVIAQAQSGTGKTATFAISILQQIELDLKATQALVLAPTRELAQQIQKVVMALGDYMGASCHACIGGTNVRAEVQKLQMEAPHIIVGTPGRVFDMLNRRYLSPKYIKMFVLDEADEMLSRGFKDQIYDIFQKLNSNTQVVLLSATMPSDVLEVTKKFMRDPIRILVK

T2: EIF3B_RRM__P55884_172_274
T2 chain: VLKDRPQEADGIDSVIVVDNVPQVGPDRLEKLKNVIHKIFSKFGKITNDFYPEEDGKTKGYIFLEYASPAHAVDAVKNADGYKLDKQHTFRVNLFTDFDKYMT

T3: EPHB2_Pkinase__P29323_604_898
T3 chain: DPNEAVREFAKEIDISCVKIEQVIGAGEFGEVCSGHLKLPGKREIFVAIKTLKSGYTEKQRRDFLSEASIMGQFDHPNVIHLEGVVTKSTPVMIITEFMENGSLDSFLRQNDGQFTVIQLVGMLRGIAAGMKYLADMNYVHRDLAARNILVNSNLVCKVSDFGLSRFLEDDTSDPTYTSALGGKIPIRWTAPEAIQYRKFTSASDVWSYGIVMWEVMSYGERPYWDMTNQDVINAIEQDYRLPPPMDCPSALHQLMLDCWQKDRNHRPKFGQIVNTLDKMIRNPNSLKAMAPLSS

T4: DOK1_PTB__Q99704_151_256
T4 chain: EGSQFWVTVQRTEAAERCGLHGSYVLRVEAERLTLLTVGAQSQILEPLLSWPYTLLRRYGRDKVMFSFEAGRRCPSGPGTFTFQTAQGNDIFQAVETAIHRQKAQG

T5: MSN_FERM_1_P26038_1_322
T5 chain: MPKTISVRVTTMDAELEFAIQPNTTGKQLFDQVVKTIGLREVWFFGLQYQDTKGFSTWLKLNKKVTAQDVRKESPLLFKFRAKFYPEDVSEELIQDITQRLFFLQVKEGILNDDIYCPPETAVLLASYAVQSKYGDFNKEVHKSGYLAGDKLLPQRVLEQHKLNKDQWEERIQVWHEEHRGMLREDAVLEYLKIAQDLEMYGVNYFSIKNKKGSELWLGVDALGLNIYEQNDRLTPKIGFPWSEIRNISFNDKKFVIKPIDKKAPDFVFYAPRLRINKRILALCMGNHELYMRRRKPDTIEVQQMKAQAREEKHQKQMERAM

T6: RDX_FERM_1_P35241_5_295
T6 chain: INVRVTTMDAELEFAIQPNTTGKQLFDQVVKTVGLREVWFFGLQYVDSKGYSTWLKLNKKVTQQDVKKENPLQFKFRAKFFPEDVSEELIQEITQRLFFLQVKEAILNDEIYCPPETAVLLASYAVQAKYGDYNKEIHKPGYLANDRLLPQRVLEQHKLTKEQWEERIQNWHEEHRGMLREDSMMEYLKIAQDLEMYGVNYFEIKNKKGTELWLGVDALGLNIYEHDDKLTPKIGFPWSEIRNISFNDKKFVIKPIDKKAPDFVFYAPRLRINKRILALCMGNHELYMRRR

T7: EPHA3_Pkinase__P29320_606_947
T7 chain: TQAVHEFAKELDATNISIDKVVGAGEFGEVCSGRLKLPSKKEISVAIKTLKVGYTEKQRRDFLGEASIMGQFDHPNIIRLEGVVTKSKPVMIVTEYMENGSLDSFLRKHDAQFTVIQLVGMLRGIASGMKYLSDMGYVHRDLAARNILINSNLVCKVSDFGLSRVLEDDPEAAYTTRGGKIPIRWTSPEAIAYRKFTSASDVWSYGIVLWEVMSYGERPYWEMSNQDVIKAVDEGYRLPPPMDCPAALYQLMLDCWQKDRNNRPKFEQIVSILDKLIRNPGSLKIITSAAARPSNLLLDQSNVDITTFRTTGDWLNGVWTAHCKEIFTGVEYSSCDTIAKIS

T8: IRS2_PTB__Q9Y4H2_188_304
T8 chain: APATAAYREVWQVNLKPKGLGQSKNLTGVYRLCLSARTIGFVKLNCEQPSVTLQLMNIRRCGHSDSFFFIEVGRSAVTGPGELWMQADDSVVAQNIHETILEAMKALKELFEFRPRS

This is one part of the list. This is a noisy data set.

Chain of EIF4E_eIF4E__P06730_1_217, P06730 (P06730 whole entry, the tested form may be a part): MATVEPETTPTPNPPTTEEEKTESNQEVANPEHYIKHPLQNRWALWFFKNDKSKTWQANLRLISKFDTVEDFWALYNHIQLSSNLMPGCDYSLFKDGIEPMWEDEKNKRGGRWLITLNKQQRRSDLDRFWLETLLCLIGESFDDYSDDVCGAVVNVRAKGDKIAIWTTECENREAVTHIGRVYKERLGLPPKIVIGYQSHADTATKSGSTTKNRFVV
Chain of NEDD4_WW_2_P46934_765_803 (chain, as listed by the source): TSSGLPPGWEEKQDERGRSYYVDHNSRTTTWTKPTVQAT

One experiment addresses EIF4E_eIF4E__P06730_1_217, P06730. The experiment is described as follows: mutation enrichment score (mutant vs wild-type peptide binding to bait); baits are purified protein domains named by gene / domain / UniProt id / residues; peptides come from disordered regions of human proteins; higher = mutation enhances binding relative to wild type. As to conditions: number of wild-type / mutant comparisons summed (bounds the score): 6; paper call: no_effect; wild-type window: ….
For the molecule PTTIAAVPPYIGPDTPALRTPSEYARPHVMSPTNRNHPFYM [L1256P L1256P], the mutation enrichment score turned out to be 3. On the same count and under the same terms, the result for DHFDTYADALWWGLITLTTICYGDKYPQTWNGRLLAATFTL [G279C G279C] reads 1; that for SPQAPGSPEDSEGVPLISLPCVPQGGSQPGPSRGLSLMSSQ [R1839C R1839C], 2.

Another experiment concerns the target NEDD4_WW_2_P46934_765_803. The experiment is described as above. The following applies: number of wild-type / mutant comparisons summed (bounds the score): 6; paper call: no_effect; wild-type window: ….
PTTIAAVPPYIGPDTPALRTPSEYARPHVMSPTNRNHPFYM [L1256P L1256P]: the mutation enrichment score turned out to be 4.

A further experiment has as its target T1, EIF_DEAD__P60842_29_237. The experiment is described as above. As to conditions: number of wild-type / mutant comparisons summed (bounds the score): 6; paper call: no_effect; wild-type window: ….
DVPEVDAQGEEMKEEFETYAYALWWGLITLATIGYGDKTPK [D305Y D305Y]: the mutation enrichment score came out at 1.

In another experiment the target is Intersectin-1_SH3_2_Q15811_913_971. The experiment is described as above. As to conditions: number of wild-type / mutant comparisons summed (bounds the score): 6; paper call: no_effect; wild-type window: ….
For DVPEVDAQGEEMKEEFETYAYALWWGLITLATIGYGDKTPK [D305Y D305Y], the mutation enrichment score worked out at 0.

In another experiment the target is T2, EIF3B_RRM__P55884_172_274. Described as above. The following applies: number of wild-type / mutant comparisons summed (bounds the score): 6; paper call: no_effect; wild-type window: ….
Take AHFENRKKEEEELVSLKDRIKRRRAERAEQQRIRNEREKER [E138K E138K]: the mutation enrichment score was -4. As to ENRKKEEEELVSLKDRIERRPAERAEQQRIRNEREKERQNR [R141P R141P], the mutation enrichment score is -4.

Take ENRKKEEEELVSLKDRIERRWAERAEQQRIRNEREKERQNR [R141W R141W]: the mutation enrichment score is -4. Still for that read-out and setting: the same measure for ENRKKEEEELVSLKDRIERRQAERAEQQRIRNEREKERQNR [R141Q R141Q]: -4; for KKEEEELVSLKDRIERRRAEGAEQQRIRNEREKERQNRLAE [R144G R144G]: -4; for KKEEEELVSLKDRIERRRAEWAEQQRIRNEREKERQNRLAE [R144W R144W]: -4. On the same count and under the same terms, the result for LVGFSVSAALQVTQTLQWVVCNWTDLENSIVSVERMQDYAW [R1221C R1221C] reads -2.4.

The next experiment concerns the target T3, EPHB2_Pkinase__P29323_604_898. The experiment is described as above. As to conditions: number of wild-type / mutant comparisons summed (bounds the score): 6; paper call: no_effect; wild-type window: ….
On to DHFDTYADALWWGLITLTTICYGDKYPQTWNGRLLAATFTL [G279C G279C], for which the mutation enrichment score is -1.

HIAEDADRKYEEVARKLVIIDSDLERAEERAELSEGKCAEL [E173D E173D]: the mutation enrichment score was 3. For SREHPSVQEKKKSTIWQFFSCLFSSSSSPPPAKRPYPSVNI [R578C R578C], the mutation enrichment score was found to be 2.

For a further experiment, the target named is T4, DOK1_PTB__Q99704_151_256. The description is as above. As to conditions: number of wild-type / mutant comparisons summed (bounds the score): 5; paper call: no_effect; wild-type window: ….
On to DELDCLIKGILYIDSVGFNGWSQCYYFENPADSEKCQKLPF [R357W R357W], for which the mutation enrichment score was 5. The same measure, in the same setting: the same measure for VHKRRYLLQPIAVEVFSGDGWNYLLAFQKGIRNKVYQRFLA [R2637W R2637W]: 5. The same measure, in the same setting: the same measure for LSSSALNNEFFTHAAQSWRELLADGEFTHEMQVRIRQEMEK [R323L R323L]: 4.9.

The target in a further experiment is EZR_FERM_1_P15311_2_295. The description is as above. The following applies: number of wild-type / mutant comparisons summed (bounds the score): 5; paper call: no_effect; wild-type window: ….
Chain of EZR_FERM_1_P15311_2_295 (chain, as listed by the source): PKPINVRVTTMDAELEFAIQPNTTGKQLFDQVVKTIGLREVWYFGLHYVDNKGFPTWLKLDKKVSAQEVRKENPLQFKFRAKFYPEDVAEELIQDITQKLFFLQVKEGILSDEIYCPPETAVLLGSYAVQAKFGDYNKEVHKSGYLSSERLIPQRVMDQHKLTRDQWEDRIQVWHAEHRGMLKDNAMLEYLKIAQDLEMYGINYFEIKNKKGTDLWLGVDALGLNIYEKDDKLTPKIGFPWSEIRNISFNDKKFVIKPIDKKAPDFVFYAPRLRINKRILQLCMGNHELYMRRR
As for DELDCLIKGILYIDSVGFNGWSQCYYFENPADSEKCQKLPF [R357W R357W], the mutation enrichment score came to 5.

In the next experiment the target is T5, MSN_FERM_1_P26038_1_322. Described as above. The following applies: number of wild-type / mutant comparisons summed (bounds the score): 6; paper call: no_effect; wild-type window: ….
Turning to DELDCLIKGILYIDSVGFNGWSQCYYFENPADSEKCQKLPF [R357W R357W], the mutation enrichment score was found to be 5.3.

Another experiment concerns the target T6, RDX_FERM_1_P35241_5_295. Described as above. The following applies: number of wild-type / mutant comparisons summed (bounds the score): 6; paper call: no_effect; wild-type window: ….
As for DELDCLIKGILYIDSVGFNGWSQCYYFENPADSEKCQKLPF [R357W R357W], the mutation enrichment score stood at 3.8.

In the next experiment the target is T1, EIF_DEAD__P60842_29_237. The experiment is described as above. The following applies: number of wild-type / mutant comparisons summed (bounds the score): 12; paper call: no_effect; wild-type window: ….
Take FRAGDMLNLALKEQQPKVRGGLLASLDGQTTGLIPANYVKI [W313G W313G]: the mutation enrichment score was -2. Same read-out and setting: the same measure for SDDETEDELDDQGSAVEPEQTRVNREAEENREPFRKECTWQ [N45T N45T]: -2; for LCDFGISGQLVDSIAKTRDACCRPYMAPERIDPSASRQGYD [G265C G265C]: -2.

For a further experiment, the target named is T7, EPHA3_Pkinase__P29320_606_947. Described as above. As to conditions: number of wild-type / mutant comparisons summed (bounds the score): 6; paper call: no_effect; wild-type window: ….
Take HIAEDADRKYEEVARKLVIIDSDLERAEERAELSEGKCAEL [E173D E173D]: the mutation enrichment score worked out at 2.

Another experiment has as its target EIF4E_eIF4E__P06730_1_217, P06730. The description is as above. As to conditions: number of wild-type / mutant comparisons summed (bounds the score): 12; paper call: no_effect; wild-type window: ….
Consider SREHPSVQEKKKSTIWQFFSCLFSSSSSPPPAKRPYPSVNI [R578C R578C], for which the mutation enrichment score came to 3.

The experiment is the same for the next values; noted with them: number of wild-type / mutant comparisons summed (bounds the score): 6; paper call: enhanced; wild-type window: ….
Consider RVPERLLFIIDGFDELKPSFYDPQGPWCLCWEEKRPTELLL [H304Y H304Y], for which the mutation enrichment score stood at 6.

A further experiment concerns the target T8, IRS2_PTB__Q9Y4H2_188_304. The experiment is described as above. As to conditions: number of wild-type / mutant comparisons summed (bounds the score): 6; paper call: no_effect; wild-type window: ….
Turning to VHKRRYLLQPIAVEVFSGDGWNYLLAFQKGIRNKVYQRFLA [R2637W R2637W], the mutation enrichment score worked out at 4.

Another experiment has as its target T2, EIF3B_RRM__P55884_172_274. The description is as above. The following applies: number of wild-type / mutant comparisons summed (bounds the score): 12; paper call: no_effect; wild-type window: ….
Take ENRKKEEEELVSLKDRIERRGAERAEQQRIRNEREKERQNR [R141G R141G]: the mutation enrichment score is -4.

Another experiment addresses Src_SH3__P12931_87_144. The experiment is described as above. The following applies: number of wild-type / mutant comparisons summed (bounds the score): 12; paper call: no_effect; wild-type window: ….
Take SPQAPGSPEDSEGVPLISLPCVPQGGSQPGPSRGLSLMSSQ [R1839C R1839C]: the mutation enrichment score came out at 4.

In a further experiment the target is MAP1LC3A_ATG8__Q9H492_2_121. The description is as above. The following applies: number of wild-type / mutant comparisons summed (bounds the score): 6; paper call: no_effect; wild-type window: ….
Consider LVGFSVSAALQVTQTLQWVVCNWTDLENSIVSVERMQDYAW [R1221C R1221C], for which the mutation enrichment score came to 1.

A further experiment deals with MAP1LC3B_ATG8__Q9GZQ8_2_119. The experiment is described as above. As to conditions: number of wild-type / mutant comparisons summed (bounds the score): 6; paper call: no_effect; wild-type window: ….
Regarding LVGFSVSAALQVTQTLQWVVCNWTDLENSIVSVERMQDYAW [R1221C R1221C], the mutation enrichment score was 5.4.

Source of the values: the supplement of paper PMC11369174, “Proteome-scale characterisation of motif-based interactome rewiring by disease mutations” (Molecular Systems Biology, 2024).
